The text below walks through data of ChEMBL document CHEMBL4888484, “Replenishing the malaria drug discovery pipeline: Screening and hit evaluation of the MMV Hit Generation Library 1 (HGL1) against asexual blood stage Plasmodium falciparum ,using a nano luciferase reporter read-out” (2022).

In all, about 150,000 compounds went through this assay and about 540 (0.36%) showed an effect of 50% or more. Some of the results follow.

The experiment concerns Plasmodium falciparum. The experiment can be described thus: Primary screen in NF54 nanoGlo assay, in single point, at 2uM, 72h; a lower Z score goes with more inhibition. The format is functional, Erythrocyte. The settings on record: timepoint 72 hour.
Consider `CCN(C(C)=O)c1nc2ccccc2n(CC(=O)Nc2cccc(C(C)=O)c2)c1=O`, for which the “% Inhibition” value was -6% and the Z score was found to be 0.97.
Take `CCc1cc(NCC2CCN(C(=O)C(C)C)CC2)nc(N(C)C)n1`: the “% Inhibition” value is 4% and the Z score is given as -0.81.
Regarding `O=C(Cc1ccc(-c2ccccc2)cc1)N1CCc2nncn2CC1`, the “% Inhibition” value is 7% and the Z score is listed as -0.81.
With `CCc1ccc(CN2CCN(S(=O)(=O)c3c(N)noc3C)CC2)s1`, the “% Inhibition” value is given as -11% and the Z score came out at 1.15.
Turning to `CCN1CCN(C(=O)Cn2nnc3ccccc3c2=O)CC1`, the “% Inhibition” value is -1% and the Z score turned out to be 0.07.
For `c1ccc(CNCc2cc3cc4c(cc3nc2OCC2CCCCC2)OCO4)nc1`, the “% Inhibition” value is recorded as -6% and the Z score came out at 1.09.
As to `C#CC(NC(=O)NC(COC)C1CCCO1)C(C)C` (centres undefined), the “% Inhibition” value is on record as -1% and the Z score turned out to be 0.24.
Regarding `C[C@H]1CCn2c(nc3cc(C(=O)NCc4ccc5c(c4)OCO5)ccc32)C1`, the “% Inhibition” value is -13% and the Z score was found to be 1.8.
For `CCc1nc2cc(C(=O)N(CCOC)C(C)C)cc(NC(=O)c3ccccc3OC)c2n1C` the same measures were 12% and -1.61.
On the same counts, the results for `COCC(=O)N1CC[C@@]2(O)CCN(Cc3ccc(F)c(F)c3)C[C@H]2C1` are -4% and 0.69.
In the case of `CNC(=O)C[C@H](C)N(C)Cc1cc2ccccc2n1C`, the “% Inhibition” value is listed as -5% and the Z score is 0.63.
For `CC(=O)NC[C@@H]1CC(F)(F)CN1C1CN(Cc2ccc(Cl)cc2)C1`, the “% Inhibition” value amounted to 10% and the Z score is listed as -1.18.
As to `COc1ccc(-c2nnc(NC(=O)CCc3ccccc3)o2)cc1OC`, the “% Inhibition” value is 2% and the Z score is -0.41.
In the case of `CCN(C(=O)c1cnc(C)cn1)c1ccccc1C`, the “% Inhibition” value is on record as -1% and the Z score is listed as 0.14.
Turning to `Cc1cc(NC(=O)CNc2cc(S(=O)(=O)N3CCCCC3)ccc2Oc2ccccc2)no1`, the “% Inhibition” value was -37% and the Z score is on record as 4.3.
Regarding `CC(OCC1CC1)C(=O)N(CC1CN(C)CCO1)c1nccs1` (centres undefined), the “% Inhibition” value came to 6% and the Z score is listed as -0.87.
For `Cc1nc2ccc(NC(=O)c3snc(O)c3Cl)cc2s1` the same measures were 9% and -1.04.
As to `CN(C)[C@@H](CNC(=O)Cc1ccc(F)cc1)c1ccsc1`, the “% Inhibition” value is -4% and the Z score was determined as 0.46.
On the same counts, the results for `COCCC1(NC(=O)COc2ccc(F)cc2)CCN(CC2CC2)CC1` are -1% and 0.16.
Take `Cc1cc(C)n(C)c(=O)c1C(=O)N1CCn2nc(Cc3ccccc3)cc2C1`: the “% Inhibition” value was -5% and the Z score is given as 0.58.
On the same counts, the results for `CN(C)Cc1ccc(Oc2ccc(CS(C)(=O)=O)cn2)cc1` are -16% and 1.37.
Consider `COc1ccccc1-c1nc(CN2CCN(S(=O)(=O)c3ccc(CC(C)C)cc3)CC2)c(C)o1`, for which the “% Inhibition” value is -16% and the Z score is reported as 2.14.
For `Cc1cccc(C(=O)NS(=O)(=O)C(C)C)c1Cl`, the “% Inhibition” value was determined as 2% and the Z score is listed as -0.34.
On the same counts, the results for `c1ccc2nc(N3C[C@@H]4CC[C@@H](C4)C3)cnc2c1` are -15% and 1.88.
In the case of `Cc1ccccc1OCC(=O)c1ccc2c(c1)N(Cc1ccc(C(=O)NCC(C)C)o1)C(=O)CO2`, the “% Inhibition” value is -15% and the Z score came out at 1.49.
Take `COC(=O)[C@@H](NC(=O)Nc1ccccc1)C(C)(C)C`: the “% Inhibition” value was -4% and the Z score is recorded as 0.65.
In the case of `Cc1cc(NC(=O)[C@H](C)S(=O)(=O)c2ccccc2Cl)on1`, the “% Inhibition” value worked out at 6% and the Z score is recorded as -1.16.
With `CC(C)Cc1nc(-c2ccc(=O)[nH]c2)n(-c2ccc(F)cc2)n1`, the “% Inhibition” value is on record as -6% and the Z score is listed as 0.75.
On the same counts, the results for `Cn1nccc1CN[C@H]1CCN(c2cccc(OC(F)(F)F)c2)C1` are 0% and 0.07.
For `Cc1cccc(C(=O)N2CCC3(CCC(=O)N([C@H]4CCN(C)C4)C3)CC2)n1`, the “% Inhibition” value stood at 4% and the Z score is given as -0.57.
Regarding `CCCc1c(C(=O)N(Cc2ccncc2)[C@@H](C)CC)c(=O)cc(C)n1CC`, the “% Inhibition” value is reported as -5% and the Z score is reported as 1.
Consider `COc1ccc(OCC(=O)N2CCCC[C@@H]2CCS(=O)(=O)c2ccccc2)cc1`, for which the “% Inhibition” value is listed as -6% and the Z score was 0.67.
For `Cn1c(C(=O)O)ccc1-c1ccc(F)cc1`, the “% Inhibition” value came to 0% and the Z score is recorded as 0.02.
For `COc1cccc(CNC(=O)CCCn2nc(-c3ccccc3)c3ccccc32)c1` the same measures were 0% and 0.09.
On the same counts, the results for `O=C(Cn1cnc2cc3c(cc21)OCCO3)N1CCCCC1` are -8% and 1.3.
As to `CCc1noc(C)c1C(=O)N[C@@H](C)c1nncn1C1CCCC1`, the “% Inhibition” value is -24% and the Z score was found to be 2.16.
In the case of `COc1cccc(Cn2nc(C(C)(C)C)c(CCC#N)c2O)n1`, the “% Inhibition” value is -3% and the Z score is reported as 0.39.
For `Cc1noc(-c2ccco2)c1C(=O)N(C)CCc1ccccn1` the same measures were -1% and 0.08.
As to `CN([C@H]1CCCc2c1cnn2C)S(=O)(=O)CCN1CCCC1`, the “% Inhibition” value turned out to be 40% and the Z score was -5.42.
Take `Cc1csc(C2(NCCc3c(C)nc4ccccn4c3=O)CCOCC2)n1`: the “% Inhibition” value was determined as 1% and the Z score was -0.14.
For the molecule `Cc1ccc(CN[C@@H]2COC3(CCC3)C2)nc1C`, the “% Inhibition” value stood at 3% and the Z score was -0.45.
For the molecule `C[C@@H](CNC(=O)CCS(=O)(=O)N(C)C)c1cccs1`, the “% Inhibition” value came out at 2% and the Z score is -0.26.
